From publication PMC5339933 (Chinese Medical Journal, 2017) come the findings set out here.

For this assay, the target named is D31V mutant NLRP3 pyrin domain (amino acids 1-112) (human, UniProt Q96P20 1-112, D31V). Briefly: SPR. (In general: SPR reads the build-up and loss of mass on a sensor chip optically.)
Sequence of UniProt Q96P20 (Q96P20 1-112 D31V): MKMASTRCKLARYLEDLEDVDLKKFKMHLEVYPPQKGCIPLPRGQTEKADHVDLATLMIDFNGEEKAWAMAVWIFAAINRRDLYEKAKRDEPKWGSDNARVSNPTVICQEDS

B1: human apoptosis-associated speck-like protein pyrin domain (ASC PYD, […]) (domain or fragment)
chain: not shown
In the case of B1, the binding result was “binds”.
